In PubChem BioAssay AID1030 (National Center for Advancing Translational Sciences (NCATS), 2008):
The whole screen tested about 220,000 compounds, of which about 16,000 (7.3%) were called active. Inconclusive results, whose numbers are uncertain, are shown with a selection of clear calls. Calls come from the whole dose curve; as a rule, active = well fitted inhibition curve with a large enough effect (not every such curve was filed as active); inconclusive = small, poorly fitted or top-dose-only effect, or another doubt; inactive = no such curve, though single readings can be large or run the other way. A potency beside an inconclusive call is a rough fit, not a confirmed value.

Each compound was assayed against Aldehyde dehydrogenase 1A1 (Homo sapiens) (UniProt P00352) (assay: qHTS Assay for Inhibitors of Aldehyde Dehydrogenase 1 (ALDH1A1)). Conditions: Purified ALDH1A1, NADH fluorescence, propionaldehyde substrate; series mostly up to 75.3 µM.
Potency is the fitted concentration of half-maximal effect; tags give direction and shape of the fitted curve.

UniProt P00352, sequence (P00352 whole entry, looked up): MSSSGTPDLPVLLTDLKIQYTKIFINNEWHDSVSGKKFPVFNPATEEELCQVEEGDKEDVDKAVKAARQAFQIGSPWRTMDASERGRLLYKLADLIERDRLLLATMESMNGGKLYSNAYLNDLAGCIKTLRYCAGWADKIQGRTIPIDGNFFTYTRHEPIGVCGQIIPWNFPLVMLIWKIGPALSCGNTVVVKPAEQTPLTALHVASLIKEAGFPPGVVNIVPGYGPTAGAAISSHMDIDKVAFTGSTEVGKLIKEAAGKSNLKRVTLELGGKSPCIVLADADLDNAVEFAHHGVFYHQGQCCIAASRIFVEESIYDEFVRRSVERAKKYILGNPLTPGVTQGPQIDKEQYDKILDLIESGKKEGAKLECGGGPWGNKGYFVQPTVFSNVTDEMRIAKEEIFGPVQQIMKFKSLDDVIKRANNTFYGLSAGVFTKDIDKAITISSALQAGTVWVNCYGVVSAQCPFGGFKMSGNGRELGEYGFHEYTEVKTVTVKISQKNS

Potency, active:
CCOC(=O)CSC1=C(C#N)C(=O)NC(c2ccc(OC)cc2)S1 (configuration not stated) 20 µM
Cc1ccc(NC(=S)NC(=O)c2ccc(-c3ccccc3)cc2)c(C)c1 11.2 µM
O=C(NCCc1csc(-c2cccnc2)n1)c1ccc(Br)o1 22.4 µM
CCC(C)(C)C1CCC(=NNS(=O)(=O)c2ccc(C)c([N+](=O)[O-])c2)CC1 (configuration not stated) 7.94 µM
C/C(=N\NS(=O)(=O)c1ccc(C)cc1)c1cc2ccccc2oc1=O 15.8 µM
COc1ccc(N=C2S/C(=C\c3ccc(C)o3)C(=O)N2CC(C)C)cc1 8.91 µM
COCCNC(=O)Nc1ccc2c(c1)N(C)C(=O)CS2 22.4 µM
C/C(=N/NC(=O)CSc1nc2ccccc2n1C)c1ccncc1 10 µM
COc1ccc(NS(=O)(=O)c2cc(S(C)(=O)=O)ccc2C)cc1 28.2 µM
O=C(CNc1ccccc1)N/N=C/c1ccc([N+](=O)[O-])cc1 3.55 µM
O=C(c1cc2c(s1)CCCCC2)N1CCN(c2ncccn2)CC1 14.1 µM

Potency, inconclusive:
C/C=C(/C)C(=O)OC(C)(C)[C@@H]1Cc2c(ccc3ccc(=O)oc23)O1 31.6 µM [inhibitor, partial curve]
COc1cccc(C2C3=C(CC(C)(C)CC3=O)Nc3n[nH]c(C)c32)c1 (configuration not stated) 31.6 µM [inhibitor, partial curve]
CC(C)(C)C(=O)N1CCC(O)(CS(=O)(=O)Cc2ccccc2Cl)CC1 22.4 µM [inhibitor, single point]
O=C(CCl)Nc1cn(-c2ccccc2)nc1-c1ccc(F)cc1 23.8 µM [inhibitor, single point]
CC1CCC(C(C)C)C(OC(=O)CSc2n[nH]c(=O)[nH]c2=O)C1 (configuration not stated) 25.1 µM [inhibitor, partial curve]
CCCCCNc1nc2ccccc2nc1NS(=O)(=O)c1cccs1 35.5 µM [inhibitor, single point]
O=C(Nc1cnn(Cc2ccc(F)cc2)c1)c1cc(-c2cccs2)on1 31.6 µM [inhibitor, single point]
CC1CN(C(=O)c2cnn3c(C(F)F)cc(-c4ccccc4)nc23)CC(C)O1 (configuration not stated) 44.7 µM [inhibitor, single point]
Cc1ccc(C)c(OCC(=O)Nc2ccc(S(=O)(=O)Nc3ccccn3)cc2)c1 35.5 µM [inhibitor, single point]
CCC1=NN2C(=N)/C(=C\c3cccn3-c3ccc(C)cc3C)C(=O)N=C2S1 39.8 µM [inhibitor, single point]
CCOC(=O)c1ccc2c(c1)nc(SCC(=O)c1ccco1)n2CC 39.8 µM [inhibitor, single point]
CC(C)(C)NC(=O)C(c1ccsc1)N(CCc1ccccc1)C(=O)Cn1nnc2ccccc21 (configuration not stated) 7.94 µM [inhibitor, partial curve, poor fit]
NC(=O)c1c(C(F)(F)F)cc(-c2ccccc2)nc1NCCO 31.6 µM [inhibitor, partial curve]
NC(=S)N=Nc1c(O)[nH]c2ccccc12 35.5 µM [inhibitor, single point]
COc1ncc2nc(-c3cccc(C#N)c3)c(=O)n(CCC#N)c2n1 25.1 µM [inhibitor, partial curve]
Cc1cnc(NC(=O)CSC(=S)N2CCOCC2)s1 39.8 µM [inhibitor, single point]
Nc1ncc(Br)cc1S(=O)(=O)NCCC(=O)N1CCN(c2ncccn2)CC1 28.2 µM [inhibitor, single point]
CCOc1ccc(N2C(=O)CC(n3nc(C)cc3C)C2=O)cc1 (configuration not stated) 20 µM [inhibitor, single point]
COc1ccc(Nc2nnc(Cc3ccccc3)c(=O)[nH]2)c(OC)c1 17.8 µM [inhibitor, partial curve]
Cc1ccc(S(=O)(=O)/N=C2/NC(=O)/C(=C/c3ccccc3)S2)cc1 39.8 µM [inhibitor, single point]
N#C/C(=C(/O)CSc1nnc(Cc2cccs2)n1C1CCCCC1)c1nc2ccccc2[nH]1 39.8 µM [inhibitor, single point]
CCc1ccc(NC(=O)C2CC=CCC2C(=O)O)cc1 (configuration not stated) 31.6 µM [inhibitor, partial curve]
O=C(N[C@H]1CCCc2ccccc21)O[C@@H]1C(=O)c2cc(Br)ccc2O[C@H]1c1ccc2c(c1)OCO2 39.8 µM [inhibitor, single point]
O=C(Nc1ccc(S(=O)(=O)NCc2ccco2)cc1)C1CCCCC1 39.8 µM [inhibitor, single point]
C/C(=N/NC(=O)c1ccncc1)c1cc2ccc(O)cc2oc1=O 35.5 µM [inhibitor, single point]
CC(OC(=O)CNC(=O)C12CC3CC(CC(C3)C1)C2)C(=O)Nc1ncc(Cl)cc1Cl (configuration not stated) 25.1 µM [inhibitor, partial curve, poor fit]
Cc1ccc(Cn2c3ccccc3c3cn[nH]c(=O)c32)cc1 25.1 µM [inhibitor, single point]
CCOC(=O)CN(c1ccccn1)S(=O)(=O)c1ccccc1 28.2 µM [inhibitor, single point]
COc1ccccc1N(CC(=O)NC(C)(C)C)C(=O)Cn1nnc(-c2ccc(C)o2)n1 39.8 µM [inhibitor, single point]
COc1ccc(C(C[N+](=O)[O-])c2c(C)cc3ccccn23)cc1 (configuration not stated) 35.5 µM [inhibitor, single point]
Cc1cccc(-c2cccc(-c3cc(=O)oc4cc5c(cc34)OCO5)c2)c1 31.6 µM [inhibitor, partial curve]
Cc1ccc(S(=O)(=O)c2c(C)cc(C)nc2Oc2cccc(C(F)(F)F)c2)cc1 12.6 µM [inhibitor, partial curve]
Cc1ccn2c(NC3CCCC3)c(-c3cccs3)nc2c1 35.5 µM [inhibitor, partial curve]
O=C(NC1CCCC1)c1c[nH]c2ccc(F)cc2c1=O 31.6 µM [inhibitor, partial curve]
c1ccc2c(c1)[nH]c1c(N3CCN(C4CCCCC4)CC3)ncnc12 31.6 µM [inhibitor, single point]
COc1ccc(OC)c(S(=O)(=O)N2CCC(C(=O)N3CCc4ccccc4C3)CC2)c1 20 µM [inhibitor, partial curve]
COc1ccc(C(=O)NC(=S)Nc2ccccc2N2CCCCC2)cc1[N+](=O)[O-] 11.2 µM [inhibitor, partial curve]
COCCCn1c2nc3ccccc3nc2c2c(=O)n(Cc3ccc(Cl)cc3)c(C)nc21 5.01 µM [inhibitor, full curve]
CC1(C)Cc2nc(N3CCCC3)c(C#N)cc2CO1 28.2 µM [inhibitor, partial curve]
CCOC(=O)c1ccc(NCc2ccc3c(c2)OCO3)cc1 39.8 µM [inhibitor, single point]
CC(C)OC(=O)CC(=O)CSc1nc(-c2ccc(F)cc2)cc(-c2ccccc2)c1C#N 22.4 µM [inhibitor, partial curve]
COc1ccc(C(=O)CSc2nnc(CNC(=O)c3ccco3)n2C)cc1 20 µM [inhibitor, partial curve, poor fit]

Potency, inactive:
COC(=O)c1cccc(NC(=O)Nc2ccc(Cl)c(Cl)c2)c1
CCC1(CC)N([O-])C(C)=C(c2ccccc2)[N+]1=O
Cc1nnc2sc(SCC(=O)Nc3cccc(Cl)c3)nn2c1=O
Cn1c(NCCCO)nc2c1c(=O)n(Cc1ccccc1F)c(=O)n2C
CCOC(=O)c1ccc(NC(=O)NCc2ccncc2)cc1
Cc1ccc(S(=O)(=O)Nc2c(C)n(C)n(-c3ccccc3)c2=O)cc1C(=O)OCC(=O)N1CCCC(C)C1 (configuration not stated)
CCOC(=O)N1CCC(N(CCOC)C(=S)Nc2cccc(SC)c2)CC1
CC(=O)N1C2(C=CC1(C)C(=O)NCc1cc(F)cc(C(F)(F)F)c1)CCCCC2 (configuration not stated)
O=C(C(=O)N1CCc2ccccc2C1)c1cn(CC(=O)N2CCCC2)c2ccccc12
Cc1cc(-c2n[nH]c(=S)n2CC(C)C)cs1
Nc1cc(=O)[nH]c(SCc2nnc(-c3ccccc3)o2)n1
N#CCCn1cc(/C=N/NC(=O)c2ccncc2)c(-c2ccccc2)n1
CC(Oc1ccc(Cl)cc1Cl)C(=O)Nn1cnnc1 (configuration not stated)
CCOC(=O)c1ccc(COC(=O)c2ccc3c(c2)-c2ccccc2C3=O)cc1
Cc1ccccc1CSc1nnc2ccc(-c3ccncc3)nn12
CC(C)(C)C(=O)Nc1cccc(-c2nc3ccccc3c(=O)o2)c1
CC(C)(C)c1ccc(C(=O)Nc2cccc3c(=O)[nH][nH]c(=O)c23)cc1
COC(=O)c1cn(CC(=O)NC2CCCCCC2)c2ccccc12
Cc1cc(NC(=O)c2cc3n(n2)C(C(F)(F)F)CC(c2ccco2)N3)n(-c2ccccc2)n1 (configuration not stated)
